From PubChem BioAssay AID504339 (National Center for Advancing Translational Sciences (NCATS), 2011)
About 17,000 (4.4%) of roughly 390,000 compounds were called active. Inconclusive means that the source gave no clear call. Such entries were picked first, then a sample of the others. The call rests on the fitted dose curve; in most records, active means well fitted inhibition curve with a large enough effect; inconclusive means small, poorly fitted or top-dose-only effect; inactive means no such curve, though single readings can be large or run the other way. Potencies of inconclusive entries are doubtful fits and often do not repeat.

Biological target: Lysine-specific demethylase 4A (Homo sapiens) (UniProt O75164)
Test: qHTS Assay for Inhibitors of JMJD2A-Tudor Domain; further: nearly all actives have a fitted effect of over 50% in size
Details: AlphaScreen JMJD2A-Tudor / H3K4me3 peptide binding; series mostly up to 114 µM
Potency means the concentration at half of the fitted maximal effect; tags describe the fitted curve by direction and shape.

Chain of UniProt O75164 (O75164 whole entry, looked up, the tested form may be a part): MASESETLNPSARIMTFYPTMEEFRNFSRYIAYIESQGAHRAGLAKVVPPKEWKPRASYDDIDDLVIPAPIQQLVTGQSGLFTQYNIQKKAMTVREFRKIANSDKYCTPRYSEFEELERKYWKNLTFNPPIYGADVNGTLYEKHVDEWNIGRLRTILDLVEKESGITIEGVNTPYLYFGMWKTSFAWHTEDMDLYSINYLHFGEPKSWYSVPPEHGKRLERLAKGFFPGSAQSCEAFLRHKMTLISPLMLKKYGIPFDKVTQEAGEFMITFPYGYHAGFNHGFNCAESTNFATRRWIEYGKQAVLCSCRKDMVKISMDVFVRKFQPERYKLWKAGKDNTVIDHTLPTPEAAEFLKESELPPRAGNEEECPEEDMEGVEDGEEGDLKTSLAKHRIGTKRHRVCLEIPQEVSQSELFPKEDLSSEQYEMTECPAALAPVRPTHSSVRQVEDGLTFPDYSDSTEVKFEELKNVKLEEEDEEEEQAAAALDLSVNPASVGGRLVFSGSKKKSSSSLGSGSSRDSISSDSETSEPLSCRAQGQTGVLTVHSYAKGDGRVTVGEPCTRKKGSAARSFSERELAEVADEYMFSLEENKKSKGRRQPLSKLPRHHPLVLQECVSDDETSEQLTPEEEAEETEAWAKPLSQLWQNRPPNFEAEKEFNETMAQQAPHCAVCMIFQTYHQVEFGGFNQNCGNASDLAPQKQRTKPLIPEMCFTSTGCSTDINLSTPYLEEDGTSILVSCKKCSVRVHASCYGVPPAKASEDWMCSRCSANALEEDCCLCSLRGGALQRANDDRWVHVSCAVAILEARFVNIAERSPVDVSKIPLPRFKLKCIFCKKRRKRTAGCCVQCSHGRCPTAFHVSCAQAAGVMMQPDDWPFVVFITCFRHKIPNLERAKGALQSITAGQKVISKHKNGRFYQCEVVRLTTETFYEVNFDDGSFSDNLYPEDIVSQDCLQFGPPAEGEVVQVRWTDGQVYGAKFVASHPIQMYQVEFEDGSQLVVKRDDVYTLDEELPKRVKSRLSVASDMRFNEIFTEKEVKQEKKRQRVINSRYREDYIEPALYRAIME

Potency, inconclusive:
CCOC(=O)c1sc(=S)n(-c2ccc3c(c2)OCO3)c1N 39.8 µM [inhibitor, partial curve]
O=C(c1ccco1)N1CCCN(Cc2cn[nH]c2-c2ccc(-c3ccccc3)cc2)CC1 63.1 µM [inhibitor, partial curve]
O=C(C1CCCN(S(=O)(=O)c2cccc3nonc23)C1)N1CCN(c2ccccc2Cl)CC1 (stereo unspecified) 12.6 µM [inhibitor, full curve]
COc1ccc(N2CCN(c3nc4ccc(C)cn4c(=O)c3C=O)CC2)cc1 79.4 µM [inhibitor, partial curve]
CCc1nnc(NC(=O)C(=O)NCCOC(=O)c2ccccc2)s1 100 µM [inhibitor, single point]
Cc1[nH]c2ccc(F)cc2c1CCN(Cc1ccco1)C(=S)NC(C)(C)C 56.2 µM [inhibitor, partial curve]
COc1ccc(NS(=O)(=O)c2cc(N)ccc2N2CCCCC2)cc1 11.2 µM [inhibitor, partial curve, poor fit]
O=C1/C(=C/c2ccc([N+](=O)[O-])cc2)C=C(c2ccccc2)N1c1ccc(O)cc1 7.94 µM [inhibitor, full curve]
S=C(c1ccccc1)N1CCCc2ccccc21 50.1 µM [inhibitor, partial curve]
CCn1c(CNc2ccc(F)cc2)nnc1SCC(=O)N1CCCc2ccccc21 39.8 µM [inhibitor, single point]
Cc1ccc(S(=O)(=O)N(CC(=O)N=Nc2c(O)[nH]c3ccccc23)c2cccc(C)c2)cc1 35.5 µM [inhibitor, single point]
Nc1n[nH]c(N)c1N=Nc1ccc2c(c1)OCO2 50.1 µM [inhibitor, partial curve]
CSCCC(NC(=O)c1ccc([N+](=O)[O-])cc1Cl)C(=O)OCC(=O)C12CC3CC(CC(C3)C1)C2 (stereo unspecified) 50.1 µM [inhibitor, partial curve, poor fit]
C[C@H](CO)N1C[C@H](C)[C@H](CN(C)Cc2ccc(Oc3ccccc3)cc2)Oc2ccc(NC(=O)Nc3cccc4ccccc34)cc2CC1=O 8.91 µM [inhibitor, full curve, poor fit]
O=S(=O)(NCC(c1cccnc1)N1CCN(c2ccc(F)cc2)CC1)c1cc(F)ccc1F (stereo unspecified) 63.1 µM [inhibitor, partial curve]
CSc1ccc(OC2CCCCC2NS(=O)(=O)c2ccccc2)cc1 (stereo unspecified) 20 µM [inhibitor, single point]
CCCC(CCC)C(=O)Nc1cccc(-c2nc3cccnc3s2)c1C 79.4 µM [inhibitor, partial curve]
COc1ccccc1C1CC(c2ccc(Cl)cc2)Nc2nc(N)nn21 (stereo unspecified) 79.4 µM [inhibitor, partial curve]
Cc1ccc(Nc2c(-c3ccccc3O)nc3ncccn23)cc1 50.1 µM [inhibitor, partial curve]
O=S(=O)(Nc1nc2ccccc2nc1Nc1ccc(N2CCOCC2)cc1)c1cc(Cl)ccc1Cl 22.4 µM [inhibitor, partial curve]
O=C(N[C@H]1C/C=C\C[C@H](CC(=O)N(CCO)Cc2ccccc2)C(=O)N[C@H](Cc2c[nH]c3ccccc23)COC1=O)OCC1c2ccccc2-c2ccccc21 56.2 µM [inhibitor, partial curve]
O=C(C1CCN(C2CC(=O)N(c3ccc(F)cc3)C2=O)CC1)N1CCOCC1 (stereo unspecified) 56.2 µM [inhibitor, partial curve]

Potency, inactive:
O=C(OCCN1CCCCC1)c1ccccc1F
Cc1ccccc1NC(=O)c1c(C)oc2ccc(O)c(CN3CCC(C)CC3)c12
Cc1cnc(C(=O)Nc2cc(F)ccc2C)cn1
Cc1nc2ccn(Cc3ccco3)c(=O)c2cc1C(=O)NCc1ccccc1F
CCOC(=O)c1ccc(NC(=O)c2cnn(-c3ccc(C)cc3C)c2C2CCN(C(=O)OC(C)(C)C)CC2)cc1
COc1cc(NC(=O)c2ccco2)c(OC)cc1NC(=O)CSc1nnc(-c2cccs2)n1C
Cc1ccc(CN2CCN(/N=C/c3cccnc3)CC2)cc1
Cn1ccc2cc(S(=O)(=O)N3CCN(S(=O)(=O)c4c(F)cccc4F)CC3)ccc21
CCNc1nnc(CSc2nc3ccccc3s2)s1
COc1cccc(-c2nn(-c3ccccc3)cc2CO)c1
Cc1cc(C)cc(-n2c(SCC(=O)N3CCCC3)nc3c([nH]c4ccccc43)c2=O)c1

Potency, active:
O=C(CSc1ccccc1C(=O)NCc1ccccc1)NC1CCCCCCC1 89.1 µM
CN(CCCCCCN(C)Cc1ccccc1O)Cc1ccccc1O 20 µM
Cc1ccc(C(=O)NCc2n[nH]c(=S)n2-c2ccccc2)cc1[N+](=O)[O-] 14.1 µM
Cc1ccc(NC(=O)c2noc3c2CCC3)cc1C 39.8 µM
CCCC(=O)NC(c1ccc(C)cc1)c1ccc2cccnc2c1O (stereo unspecified) 56.2 µM
CCN(CC)c1ccc(-n2c(C)c(C(C)=O)c(C(C)=O)c2C)cc1 89.1 µM
CCOC(=O)c1scc(-c2ccccc2)c1S(=O)(=O)Nc1ccc(N(C)C)cc1 14.1 µM
Cc1cccc(-n2c(-c3ccco3)n[nH]c2=S)c1 5.62 µM
COc1ccc(-n2c(-c3ccc(C)cc3)n[nH]c2=S)cc1 20 µM
Cc1cccc(NC(=O)CSc2nnc(-c3ccco3)c(-c3ccco3)n2)c1 39.8 µM
COc1ccccc1OCCNc1nc2c(c(=O)n(C)c(=O)n2C)n1C 22.4 µM
C=CCc1cc(OC)ccc1OCCCCn1cncn1 5.62 µM
O=C(CSc1ccsc1[N+](=O)[O-])Nc1cc(F)ccc1F 44.7 µM
